According to the supplement of paper PMC4967469:

Assays:
Assay in all cases: Viability of human cancer cell lines after 72 h of drug (GDSC screen)
[1] = compound: NC(=O)Nc1sc(-c2ccc(F)cc2)cc1C(N)=O [TPCA-1]; conditions: top dose 20 µM
Experimental: (§1)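 Human cancer cell lines in 384-well plates, medium with 10% serum, drug for 72 h over a 256-fold dose range (nine 2-fold or five 4-fold steps up to the top dose). Adherent lines were fixed and stained with the nucleic acid dye Syto60, suspension lines read with resazurin; signal relative to control wells, capped at 0 and 100%. One two-parameter sigmoid per drug and line, fitted in a mixed model over all curves with the slope shared within a line.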

[2] = compound: C/C(=C\c1csc(C)n1)[C@@H]1C[C@@H]2O[C@]2(C)CCC[C@H](C)[C@H](O)[C@@H](C)C(=O)C(C)(C)[C@@H](O)CC(=O)O1 [Epothilone B]; conditions: top dose 0.032 µM; top dose inferred
Experimental: as §1

[3] = compound: C[C@@H](N)c1ccc(C(=O)Nc2ccnc3[nH]ccc23)cc1 [Y-39983]; conditions: top dose 20 µM; top dose inferred
Experimental: as §1

[4] = compound: CC(C)CC(=O)Nc1n[nH]c2c1CN(C(=O)C1CCN(C)CC1)C2(C)C [PHA-793887]; conditions: top dose 10.24 µM
Experimental: as §1

[5] = compound: CCCS(=O)(=O)Nc1ccc(F)c(C(=O)c2c[nH]c3ncc(Cl)cc23)c1F [PLX4720]; conditions: top dose 10 µM
Experimental: as §1

[6] = screen: GDSC drug entry 1371, top dose inferred

Cell Line	AUC [1]	IC50 [1] [µM]	AUC [2]	IC50 [2] [µM]	AUC [3]	IC50 [3] [µM]	AUC [4]	IC50 [4] [µM]	AUC ([5]; screen: GDSC drug entry 1036)	IC50 ([5]; screen: GDSC drug entry 1036) [µM]	AUC [5, 6]	IC50 [5, 6] [µM]
PL4 (pancreas, adherent)	0.946	> 20	0.794	0.0153	0.987	> 20	0.961	> 10.2	0.985	> 10	0.983	> 10
PL18 (pancreas, adherent)	0.94	> 20	0.794	0.0146	0.979	> 20	0.906	> 10.2	–	–	0.909	> 10
RCM-1 (large intestine, adherent)	0.93	> 20	0.792	0.0181	0.969	> 20	0.977	> 10.2	0.959	> 10	0.983	> 10
RD (rhabdomyosarcoma, adherent)	0.843	16.2	0.64	0.00507	0.955	> 20	0.844	8.36	–	–	0.938	> 10
RERF-GC-1B (stomach, adherent)	0.784	9.53	0.736	0.0103	0.844	16.9	0.901	> 10.2	0.985	> 10	0.983	> 10
RERF-LC-KJ (lung adenocarcinoma, adherent)	0.962	> 20	0.601	0.00383	0.969	> 20	0.709	2.54	0.978	> 10	0.986	> 10
RERF-LC-MS (lung adenocarcinoma, adherent)	0.849	15.7	0.795	0.0153	0.972	> 20	0.987	> 10.2	0.987	> 10	0.968	> 10
RERF-LC-Sq1 (lung squamous cell carcinoma, adherent)	0.9	> 20	0.932	> 0.032	0.961	> 20	0.875	> 10.2	0.928	> 10	0.858	> 10
RH-41 (rhabdomyosarcoma, adherent)	0.897	17.6	0.861	0.0202	0.992	> 20	0.897	9.05	0.927	> 10	0.991	> 10
RKN (ovary, adherent)	0.868	> 20	0.855	0.0279	0.929	> 20	0.857	9.14	0.918	> 10	0.931	> 10
RMG-I (ovary, adherent)	0.77	8.88	0.86	> 0.032	0.983	> 20	0.775	4.76	–	–	0.92	> 10
RO82-W-1 (thyroid, adherent)	0.973	> 20	0.915	> 0.032	0.966	> 20	0.983	> 10.2	0.965	> 10	0.909	> 10

By IC50 is meant the dose at which the fit gives 50% viability; a limit (>, <) means that the fit lies beyond the doses tested. AUC sums up the same curve from the lowest dose to the 256-fold higher top dose: 1 means no effect, lower means more sensitive. For part of these data: Where the top dose is marked as inferred, it was calculated from the reported fits. For part of these data: Drugs with an entry number were screened twice under separate entries, and the two screens often disagree.
